# In article PMC4336329 (PLoS ONE, 2015):
# Screen size: about 310,000 compounds; about 2,200 (0.71%) showed an effect of 50% or more. The effect is printed as a negative number. Some of the results follow.
# Target: human ether-à-go-go-related gene (hERG) potassium channel (human, UniProt Q12809)
# Assay: primary screen, population patch clamp on CHO cells stably expressing hERG
# human ether-à-go-go-related gene (hERG) potassium channel, sequence (Q12809 whole entry, looked up): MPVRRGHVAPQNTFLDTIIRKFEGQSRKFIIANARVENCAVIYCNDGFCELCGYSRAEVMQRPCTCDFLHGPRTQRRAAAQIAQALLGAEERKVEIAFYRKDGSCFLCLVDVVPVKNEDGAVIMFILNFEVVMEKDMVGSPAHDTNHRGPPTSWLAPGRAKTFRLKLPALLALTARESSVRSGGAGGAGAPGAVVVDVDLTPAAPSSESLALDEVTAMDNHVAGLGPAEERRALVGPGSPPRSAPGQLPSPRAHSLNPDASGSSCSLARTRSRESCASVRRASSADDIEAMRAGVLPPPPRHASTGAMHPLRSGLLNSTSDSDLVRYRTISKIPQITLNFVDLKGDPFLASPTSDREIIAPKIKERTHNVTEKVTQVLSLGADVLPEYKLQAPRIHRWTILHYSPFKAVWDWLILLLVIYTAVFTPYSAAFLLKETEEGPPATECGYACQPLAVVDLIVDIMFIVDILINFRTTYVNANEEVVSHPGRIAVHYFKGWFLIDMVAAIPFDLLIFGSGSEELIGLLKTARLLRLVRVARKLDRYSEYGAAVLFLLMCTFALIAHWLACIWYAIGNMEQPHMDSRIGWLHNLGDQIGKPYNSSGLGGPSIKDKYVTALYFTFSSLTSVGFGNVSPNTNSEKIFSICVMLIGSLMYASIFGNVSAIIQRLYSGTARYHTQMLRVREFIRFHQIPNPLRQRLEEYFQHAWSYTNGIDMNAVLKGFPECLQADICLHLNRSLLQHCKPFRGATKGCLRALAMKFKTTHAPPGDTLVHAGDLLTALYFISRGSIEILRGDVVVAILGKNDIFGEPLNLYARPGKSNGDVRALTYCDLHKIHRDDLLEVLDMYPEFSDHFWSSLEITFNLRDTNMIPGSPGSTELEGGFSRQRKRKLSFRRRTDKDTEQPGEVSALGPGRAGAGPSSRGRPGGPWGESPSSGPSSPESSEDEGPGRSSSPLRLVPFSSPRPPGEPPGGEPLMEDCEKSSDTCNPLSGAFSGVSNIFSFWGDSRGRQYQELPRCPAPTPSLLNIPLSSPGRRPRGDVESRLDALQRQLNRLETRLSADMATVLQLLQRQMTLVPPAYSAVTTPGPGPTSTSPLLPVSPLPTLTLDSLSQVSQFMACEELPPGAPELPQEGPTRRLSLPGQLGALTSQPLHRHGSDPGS
row,SMILES,"hERG current change (%, negative = inhibition) at 1uM [%]"
1,O=C(CCC(=O)OCC(=O)c1cccc([N+](=O)[O-])c1)Nc1ccccc1Cl,4.27
2,COc1ccc(Cl)cc1NC(=O)CN(C)CC(=O)N1CC(=O)Nc2ccccc21,3.83
3,COc1ccc(CNCc2cccc(Cl)c2)cc1,9.59
4,O=C(N/N=C/c1ccc(Cl)c(Cl)c1)c1ccc2nc[nH]c2c1,14.7
5,Cc1ccc(NC(=O)CSc2nc(=O)n(CCN3CCOCC3)c3c2CCCC3)cc1,-1.54
6,CC(=O)Nc1cccc(-n2nnc(SCC(=O)c3ccccc3)n2)c1,13.3
7,COc1cc(OC)cc(C(=O)Nc2cccc(NC(=O)c3cc(OC)cc(OC)c3)n2)c1,9.84
8,CCC(C)NC(=O)c1ccccc1NC(=O)c1ccc(CSc2ccccc2)cc1 (stereo not shown),14.6
9,CCOc1ccc(C(=O)COC(=O)c2ccc(-n3cnnn3)cc2)cc1,15.4
10,C#Cc1ccc([C@@H]2C=C(C(=O)NCc3ccccc3)O[C@H](OCCCCO)C2)cc1,-0.517
11,CC1(C)CC(=O)c2cc(NC(=O)c3ccc(F)cc3)c(=O)oc2C1,9
12,CS(=O)(=O)c1ccc(-c2nnn(CC(=O)Nc3ccc4c(c3)OCCO4)n2)cc1,8.3
13,Cc1nn(Cc2nnc(SCC(=O)Nc3cccc(C(F)(F)F)c3)n2C)c(C)c1[N+](=O)[O-],-12.4
14,COC(=O)C1=C(C(=O)OC)[C@@H]2N(Cc3ccccc3)c3ccccc3[C@@]23C[C@@H](C(=O)OC)N(C(=O)C2CCC2)C3=N1,7.32
15,Cc1cc(NS(=O)(=O)c2ccc(NC(=S)NC(=O)c3ccc(Br)cc3)cc2)no1,1.97
16,Cc1ccc(S(=O)(=O)N2CCOCC2)cc1C(=O)Nc1ccccc1F,18.2
17,Cc1ccc(/C=N/n2cnc3sc(C)c(C)c3c2=O)o1,16.5
18,COc1cc(C(c2nnnn2C(C)(C)C)N2CCN(c3nc4ccccc4s3)CC2)ccc1O (stereo not shown),3.06
19,O=S(=O)(Nc1ccc(Cc2ccncc2)cc1)c1cccs1,-0.666
20,CCCCNCc1cc(Br)c(OCC(=O)N2CCOCC2)c(OC)c1.Cl,2.69
21,O=c1[nH]c(O)c(/C=C2\C=Nc3ccc(Br)cc32)[nH]1,14.9
22,CCCc1nnc(NC(=O)CSc2ncn[nH]2)s1,10.8

row,SMILES,"hERG current change (%, negative = inhibition) at 1uM [%]"
1,CCOc1ccccc1CNCCNCC(C)O.Cl (stereo not shown),4.76
2,C=CCn1c(-c2ccc(Cl)cc2)cnc1SC(C)C(=O)NC(N)=O (stereo not shown),-0.152
3,O=c1c2ccccc2nc(-c2ccco2)n1/N=C/c1ccco1,17.5
4,Cc1ccc(-c2nn3c(C)nnc3s2)cc1NC(=O)c1ccc(OC(C)C)cc1,-1.79
5,O=C(Cc1ccc(Cl)cc1)NCC(=O)N1CCCC1,0.842
6,CC(=O)Nc1ccc(NC(=O)C(C)Sc2nnc(-c3cccs3)o2)cc1 (stereo not shown),15.3
7,CCOC(=O)/C(C#N)=C\c1c(OCC)n(CC)c2ccccc12,2.72
8,CCc1ccc(NC(=S)NC(=O)c2c(-c3ccccc3Cl)noc2C)cc1,5.32
9,c1ccc(-c2ccc(C3=Nn4c(nnc4-c4cccs4)SC3)cc2)cc1,9.69
10,O=C(COC(=O)C1CCN(C(=O)c2ccc(Cl)cc2)CC1)c1ccco1,-2.41
11,Cc1cc(OCc2cc(C(=O)N(C)C(C)c3ccccn3)no2)cc(C)c1Cl (stereo not shown),11.9
12,O=C1C(c2ccccc2)SC(=Nc2ccccc2)N1S(=O)(=O)c1ccccc1 (stereo not shown),5.15
13,CC(=O)N/C(=C\c1ccccc1)C(=O)OCc1ccccc1,4.66
14,O=C(NCC1CCCCC1)c1cc([N+](=O)[O-])ccc1Cl,16.2
15,Cc1nc(N)sc1-c1csc(Nc2cccc(C(=O)O)c2)n1,6.2
16,CCOC(=O)CSc1nnc(CNC(=O)c2ccc(OC)cc2OC)n1-c1ccc(OC)cc1,-31.4
17,Cc1cc(NC(=O)c2cccc(S(=O)(=O)N3CCC(C)CC3)c2)no1,9.36
18,O=C(NCCc1cccc(Cl)c1)C1CCC(=O)N(Cc2ccc(Cl)cc2)C1 (stereo not shown),-8.57
19,O=C(CSc1ccccn1)Nc1nc2c(ccc3ccccc32)s1,8.48
20,CCOC(=O)NC(=S)Nc1c(C)n(C)n(-c2ccccc2)c1=O,13.5
21,O=[N+]([O-])c1ccc(N=Nc2ncc[nH]2)cc1,12.3
